Test results reported in PMC7954794, “Protein context shapes the specificity of SH3 domain-mediated interactions in vivo” (Nature Communications, 2021).
No end group written: not given here.

T1: Cd3ε peptide (RGQNKERPPPVPNPDY), fluorescein isothiocyanate-conjugated (also: fluorescein isothiocyanate-conjugated (position not given here))
T1 construct: peptide of CD3 epsilon, ligand of NCK2 SH3-1; also called CD3Ɛ
T1 peptide: RGQNKERPPPVPNPDY

T2: PAK1 peptide (DIQDKPPAPPMRNTST), fluorescein isothiocyanate-conjugated (also: fluorescein isothiocyanate-conjugated (position not given here))
T2 construct: peptide of PAK1, ligand of NCK2 SH3-2; also called PAK1 target peptide
T2 peptide: DIQDKPPAPPMRNTST

B1: NCK2 2|1|3 full-length recombinant protein (SH3-shuffled, tag-free) (other, mouse, UniProt O55033 114-170, looked up)
chain: IPAFVKFAYVAEREDELSLVKGSRVTVMEKCSDGWWRGSFNGQIGWFPSNYVLEEADNSLKKGSLVKNLKDTLGLGKTRRKPSARDASPTPSTDAEYPANGSGADRIYDLNTEEVIVIAKWDYTAQQDQELDIRKNERLWLLDDSKTWWRVRNAANRTGYVPSNYVERKEAAAEAPSFLSLRRGTALSNGQGARVLHVVQTLYPFSSVTEEELSFEKGETMEVIEKPENDPEWWKCKNARGQVGLVPKNYVVVLSDGPALHPAHTPQISYTGPSASGRFAGREWYYGNVTRHQAECALNERGVEGDFLIRDSESSPSDFSVSLKASGRNKHFKVQLVDSVYCIGQRRFHSMDELVEHYKKAPIFTSEHGEKLYLVRALQ
notes: NCK2, mouse, SH3-2; NCK2, mouse, linker 1; NCK2, mouse, SH3-1; NCK2, mouse, linker 2, SH3-3, linker 3 and SH2; source: E. coli BL21 (DE3), purified (GSTrap, TEV cleavage, HisTrap)
B2: NCK2 3|2|1 full-length recombinant protein (SH3-shuffled, tag-free) (other, mouse, UniProt O55033 198-256, looked up)
chain: HVVQTLYPFSSVTEEELSFEKGETMEVIEKPENDPEWWKCKNARGQVGLVPKNYVVVLSNSLKKGSLVKNLKDTLGLGKTRRKPSARDASPTPSTDAEYPANGSGADRIYDLNIPAFVKFAYVAEREDELSLVKGSRVTVMEKCSDGWWRGSFNGQIGWFPSNYVLEEADEAAAEAPSFLSLRRGTALSNGQGARVLTEEVIVIAKWDYTAQQDQELDIRKNERLWLLDDSKTWWRVRNAANRTGYVPSNYVERKDGPALHPAHTPQISYTGPSASGRFAGREWYYGNVTRHQAECALNERGVEGDFLIRDSESSPSDFSVSLKASGRNKHFKVQLVDSVYCIGQRRFHSMDELVEHYKKAPIFTSEHGEKLYLVRALQ
notes: NCK2, mouse, SH3-3; NCK2, mouse, linker 1, SH3-2 and linker 2; NCK2, mouse, SH3-1; NCK2, mouse, linker 3 and SH2; source: E. coli BL21 (DE3), purified (GSTrap, TEV cleavage, HisTrap)
B3: NCK2 1|3|2 full-length recombinant protein (SH3-shuffled, tag-free) (other, mouse, UniProt O55033 1-113, looked up)
chain: MTEEVIVIAKWDYTAQQDQELDIRKNERLWLLDDSKTWWRVRNAANRTGYVPSNYVERKNSLKKGSLVKNLKDTLGLGKTRRKPSARDASPTPSTDAEYPANGSGADRIYDLNHVVQTLYPFSSVTEEELSFEKGETMEVIEKPENDPEWWKCKNARGQVGLVPKNYVVVLSEAAAEAPSFLSLRRGTALSNGQGARVLIPAFVKFAYVAEREDELSLVKGSRVTVMEKCSDGWWRGSFNGQIGWFPSNYVLEEADDGPALHPAHTPQISYTGPSASGRFAGREWYYGNVTRHQAECALNERGVEGDFLIRDSESSPSDFSVSLKASGRNKHFKVQLVDSVYCIGQRRFHSMDELVEHYKKAPIFTSEHGEKLYLVRALQ
notes: NCK2, mouse, SH3-1 and linker 1; NCK2, mouse, SH3-3; NCK2, mouse, linker 2; NCK2, mouse, SH3-2; NCK2, mouse, linker 3 and SH2; source: E. coli BL21 (DE3), purified (GSTrap, TEV cleavage, HisTrap)
B4: NCK2 3|1|2 full-length recombinant protein (SH3-shuffled, tag-free) (other, mouse, UniProt O55033 198-256, looked up)
chain: HVVQTLYPFSSVTEEELSFEKGETMEVIEKPENDPEWWKCKNARGQVGLVPKNYVVVLSNSLKKGSLVKNLKDTLGLGKTRRKPSARDASPTPSTDAEYPANGSGADRIYDLNTEEVIVIAKWDYTAQQDQELDIRKNERLWLLDDSKTWWRVRNAANRTGYVPSNYVERKEAAAEAPSFLSLRRGTALSNGQGARVLIPAFVKFAYVAEREDELSLVKGSRVTVMEKCSDGWWRGSFNGQIGWFPSNYVLEEADDGPALHPAHTPQISYTGPSASGRFAGREWYYGNVTRHQAECALNERGVEGDFLIRDSESSPSDFSVSLKASGRNKHFKVQLVDSVYCIGQRRFHSMDELVEHYKKAPIFTSEHGEKLYLVRALQ
notes: NCK2, mouse, SH3-3; NCK2, mouse, linker 1; NCK2, mouse, SH3-1; NCK2, mouse, linker 2; NCK2, mouse, SH3-2; NCK2, mouse, linker 3 and SH2; source: E. coli BL21 (DE3), purified (GSTrap, TEV cleavage, HisTrap)
B5: NCK2 2|3|1 full-length recombinant protein (SH3-shuffled, tag-free) (other, mouse, UniProt O55033 114-170, looked up)
chain: IPAFVKFAYVAEREDELSLVKGSRVTVMEKCSDGWWRGSFNGQIGWFPSNYVLEEADNSLKKGSLVKNLKDTLGLGKTRRKPSARDASPTPSTDAEYPANGSGADRIYDLNHVVQTLYPFSSVTEEELSFEKGETMEVIEKPENDPEWWKCKNARGQVGLVPKNYVVVLSEAAAEAPSFLSLRRGTALSNGQGARVLTEEVIVIAKWDYTAQQDQELDIRKNERLWLLDDSKTWWRVRNAANRTGYVPSNYVERKDGPALHPAHTPQISYTGPSASGRFAGREWYYGNVTRHQAECALNERGVEGDFLIRDSESSPSDFSVSLKASGRNKHFKVQLVDSVYCIGQRRFHSMDELVEHYKKAPIFTSEHGEKLYLVRALQ
notes: NCK2, mouse, SH3-2; NCK2, mouse, linker 1; NCK2, mouse, SH3-3; NCK2, mouse, linker 2; NCK2, mouse, SH3-1; NCK2, mouse, linker 3 and SH2; source: E. coli BL21 (DE3), purified (GSTrap, TEV cleavage, HisTrap)

Assays:
[1] = target: T1, Cd3ε peptide (RGQNKERPPPVPNPDY), …; test: fluorescence polarisation; 40 nM fluorescein isothiocyanate-conjugated peptide, NCK2 titrated (0-150 μM for CD3ε, 0-175 μM for PAK1); 17 mM Tris-HCl pH 8, 100 mM NaCl; one-site total binding model; triplicates; conditions: both partners purified
[2] = target: the molecule itself; test: cell-based or functional assay
[3] = target: T2, PAK1 peptide (DIQDKPPAPPMRNTST), …; test: fluorescence polarisation; 40 nM fluorescein isothiocyanate-conjugated peptide, NCK2 titrated (0-150 μM for CD3ε, 0-175 μM for PAK1); 17 mM Tris-HCl pH 8, 100 mM NaCl; one-site total binding model; triplicates; conditions: both partners purified

| Binder | binding result [1] | fold decrease against WT NCK2 [1] [fold] | phase separation in vitro after 24 h at 60 mM NaCl, proportion of protein in the pellet (Coomassie), relative to WT [2] [fold] | fold decrease against WT NCK2 [3] [fold] |
| --- | --- | --- | --- | --- |
| B1 | binds |  |  |  |
| B2 |  | ~2 |  |  |
| B3 |  |  | ~2 | ~2 |
| B4 | binds |  | ~2 | ~2 |
| B5 |  | ~2 |  |  |
